{
  "source": "PubChem BioAssay AID624417",
  "about": "(National Center for Advancing Translational Sciences (NCATS), 2012)",
  "note": "“And” between values parts separate entries of the source, which are not always exact repeats. Identical values can stand only once. Out of some 410,000 compounds screened, about 6,400 (1.6%) were called active. This list was built around the results that the source calls inconclusive (neither active nor inactive); the mix of calls is not that of the screen. The call rests on the fitted dose curve; in most records, active means well fitted inhibition curve with a large enough effect; inconclusive means small, poorly fitted or top-dose-only effect; inactive means no such curve, though single readings can be large or run the other way. Potencies beside an inconclusive call are fits to weak or partial responses and may not hold up. Potency means the concentration at half of the fitted maximal effect; tags describe the fitted curve by direction and shape.",
  "data": [
    {"molecular_target": "Glucagon-like peptide 1 receptor (Homo sapiens) (UniProt P43220)", "sequence (P43220 whole entry, looked up)": "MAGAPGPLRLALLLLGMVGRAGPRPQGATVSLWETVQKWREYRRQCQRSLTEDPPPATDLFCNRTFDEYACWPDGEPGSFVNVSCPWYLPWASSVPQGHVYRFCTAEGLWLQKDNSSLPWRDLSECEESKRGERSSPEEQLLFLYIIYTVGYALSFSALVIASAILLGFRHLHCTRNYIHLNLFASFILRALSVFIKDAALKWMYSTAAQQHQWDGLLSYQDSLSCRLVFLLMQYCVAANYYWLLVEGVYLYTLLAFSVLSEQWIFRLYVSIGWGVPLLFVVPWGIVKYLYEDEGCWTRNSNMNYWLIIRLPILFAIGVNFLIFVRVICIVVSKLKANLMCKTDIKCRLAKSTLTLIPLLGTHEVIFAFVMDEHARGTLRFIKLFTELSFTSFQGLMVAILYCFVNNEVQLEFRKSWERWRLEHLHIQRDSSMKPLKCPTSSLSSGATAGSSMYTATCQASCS", "assay": "qHTS of GLP-1 Receptor Inverse Agonists (Inhibition Mode); further: nearly all actives have a fitted effect of over 55% in size", "conditions": "HEK293 GLP-1R CRE-luciferase, luminescence, 24 h, GLP-1R form is constitutively active; series mostly up to 38.3 µM", "procedure,_shortened": "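Cells are plated, allowed 12 hours at 37 deg C, then treated with compounds for 24 hr before luciferase detection reagent is added and luminescence is read after 12 min at room temperature. The HEK293 line carries constitutively active GLP-1R with a cAMP-responsive reporter.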", "values": [
      {"compound": "CCOC(=O)c1ccc(NC(=O)Cn2c(C)nc3c(sc(=S)n3CC)c2=O)cc1", "Potency": "inactive"},
      {"compound": "CC(C)NC(=O)c1onc(CSc2cccc(Cl)c2)c1C(=O)O", "Potency": "inconclusive: 28.2 µM [inhibitor, single point]"},
      {"compound": "C[C@@H]1CN([C@H](C)CO)C(=O)c2cc(NC(=O)C3CCCCC3)ccc2O[C@@H]1CN(C)Cc1ccc(C(F)(F)F)cc1", "Potency": "inconclusive: 22.4 µM [inhibitor, partial curve, poor fit]"},
      {"compound": "COc1ccc(-c2nc3ccccn3c2Cl)cc1", "Potency": "inconclusive: 7.08 µM [inhibitor, partial curve, poor fit]"},
      {"compound": "COc1ccc(OC)c(/C=N/NC(=O)c2cc3c(OC)cccc3[nH]2)c1", "Potency": "inconclusive: 28.2 µM [inhibitor, single point]"},
      {"compound": "CCOC(=O)[C@@H]1[C@H]2COc3ccccc3[C@H]2N2C(=O)N(c3ccc(Cl)cc3)C(=O)[C@@]12C", "Potency": "inconclusive: 10 µM [inhibitor, partial curve, poor fit]"},
      {"compound": "CC(/C=N/NC(=O)c1ccccc1F)=C\\c1ccccc1", "Potency": "inconclusive: 11.2 µM [inhibitor, single point]"},
      {"compound": "NS(=O)(=O)c1ccc(CCNC(=O)c2ccc([N+](=O)[O-])s2)cc1", "Potency": "inactive"},
      {"compound": "Cc1ccc(C(=O)N2c3nc(-c4ccco4)nn3C3(CCCCC3)[C@@H]3CCCC[C@@H]32)cc1", "Potency": "inconclusive: 22.4 µM [inhibitor, single point]"},
      {"compound": "C[C@H](NC(=O)c1[nH]cnc1C(=O)Nc1ccc(CNC(=O)OC(C)(C)C)cc1)C(=O)OC(C)(C)C", "Potency": "inconclusive: 28.2 µM [inhibitor, single point]"},
      {"compound": "CN(c1ccc(C(=O)N2CCCCCC2)cc1)S(=O)(=O)c1ccccc1", "Potency": "inconclusive: 10 µM [inhibitor, partial curve, poor fit]"},
      {"compound": "CCCN(CC(=O)Nc1ccccc1OC)C(=O)CSc1nc(C)cc(C)n1", "Potency": "inconclusive: 15.8 µM [inhibitor, single point]"},
      {"compound": "CC(=O)Nc1cccc(-c2ccnc3c2CC(C)(C(=O)NCc2ccncc2)O3)c1", "note": "(centres undefined)", "Potency": "inconclusive: 10 µM [inhibitor, single point]"},
      {"compound": "CN(C)c1nc(-c2ccccc2)nnc1C(F)(F)F", "Potency": "inactive"},
      {"compound": "COc1cccc(NC(=O)CN(C)C(=O)c2ccc(COc3ccccc3)cc2)c1", "Potency": "inconclusive: 10 µM [inhibitor, partial curve, poor fit]"},
      {"compound": "CC(C)(C)c1ccc(/C=C/C(=O)NCCCN2CCOCC2)cc1", "Potency": "inconclusive: 20 µM [inhibitor, single point]"},
      {"compound": "O=[N+]([O-])c1cccc(Nc2c([N+](=O)[O-])ccc3nonc23)c1", "Potency": "inconclusive: 0.316 µM [inhibitor, full curve, poor fit]"},
      {"compound": "CS(=O)(=O)c1nc(-c2ccccc2)cc(-c2ccccc2)c1C#N", "Potency": "inconclusive: 25.1 µM [inhibitor, single point]"},
      {"compound": "COc1ccc(-c2ccnc3c2c(=O)n(C)c(=O)n3C)cc1OC", "Potency": "inactive"},
      {"compound": "CCCCSc1nnc(-c2cc3c(C(F)(F)F)nn(C)c3s2)n1C", "Potency": "inconclusive: 28.2 µM [inhibitor, partial curve, poor fit]"},
      {"compound": "CC(C)(CNC(=O)c1cc([N+](=O)[O-])ccc1N1CCC(Cc2ccccc2)CC1)N1CCOCC1", "Potency": "inconclusive: 14.1 µM [inhibitor, partial curve, poor fit]"},
      {"compound": "COc1cc(C(N)=O)cc(Br)c1OCc1ccccc1", "Potency": "inconclusive: 28.2 µM [inhibitor, single point]"},
      {"compound": "O=C(C1=C[C@@H](c2csc3ccccc23)C[C@@H](OCc2ccc(CO)cc2)O1)N1CCN(Cc2ccccc2)CC1", "Potency": "inconclusive: 22.4 µM [inhibitor, single point]"},
      {"compound": "COc1cccc(-c2csc(N3CCN(Cc4ccccc4)CC3)n2)c1", "Potency": "inactive"},
      {"compound": "COc1ccccc1Cc1c(-c2ccc(C)cc2)nc2c(C)cc(Br)cn12", "Potency": "inconclusive: 11.2 µM [inhibitor, partial curve, poor fit]"},
      {"compound": "Cc1ccnc(NC(=O)C2CCN(S(=O)(=O)c3c(C)c(C)cc(C)c3C)CC2)c1", "Potency": "inconclusive: 11.2 µM [inhibitor, partial curve, poor fit]"},
      {"compound": "COc1ccccc1-c1ccc2c(c1)C(C)(Cc1cccc(F)c1)C(=O)N2", "note": "(centres undefined)", "Potency": "inconclusive: 0.501 µM [inhibitor, full curve, poor fit]"},
      {"compound": "CCC(=O)N(C)CCc1cc2c(c(OC)c1/C=N/NC(=O)[C@H]1C[C@@H]1c1ccccc1)OCO2", "Potency": "inconclusive: 28.2 µM [inhibitor, single point]"},
      {"compound": "CC(OC(=O)/C=C/c1ccco1)C(=O)Nc1cccc([N+](=O)[O-])c1", "note": "(centres undefined)", "Potency": "inconclusive: 7.08 µM [inhibitor, partial curve, poor fit]"},
      {"compound": "COc1ccc(C(C)=O)cc1CC1(C)C(=O)Nc2ccc(-c3cccc(C(F)(F)F)c3)cc21", "note": "(centres undefined)", "Potency": "inconclusive: 14.1 µM [inhibitor, single point]"},
      {"compound": "CC(C)N1CCC(N2CCN(Cc3ccc4nsnc4c3)CC2CCO)CC1", "note": "(centres undefined)", "Potency": "inconclusive: 31.6 µM [inhibitor, partial curve, poor fit]"},
      {"compound": "O=S(=O)(c1ccc2ccccc2c1)N1CCN(c2ccc(O)cc2)CC1", "Potency": "inactive"},
      {"compound": "Cc1c(C(O)CN2CCN(Cc3ccc4c(c3)OCO4)CC2)c2ccccc2n1C", "note": "(centres undefined)", "Potency": "inactive"},
      {"compound": "COc1ccc2oc(C(=O)OCC(=O)N3CCC(C)CC3)c(C)c2c1", "Potency": "inconclusive: 11.2 µM [inhibitor, single point]"},
      {"compound": "CSc1ccc(-c2nnn(Cc3ccc(Br)cc3)n2)cc1", "Potency": "inconclusive: 28.2 µM [inhibitor, single point]"},
      {"compound": "CC(C)CCNC(=O)NC(=O)CSc1nnc(COc2ccccc2Cl)o1", "Potency": "inconclusive: 28.2 µM [inhibitor, single point]"},
      {"compound": "CC(=O)N1N=C(c2cccs2)CC1c1ccc(C)o1", "note": "(centres undefined)", "Potency": "inconclusive: 31.6 µM [inhibitor, single point]"},
      {"compound": "CCOc1c(OC)ccc2c3c(c(=O)oc12)CCCC3", "Potency": "inactive"},
      {"compound": "COc1cc(NC(=S)N2CCN(C/C=C/c3ccccc3)CC2)cc(OC)c1", "Potency": "inconclusive: 4.47 µM [inhibitor, full curve]"},
      {"compound": "CC(C)(C)N(Cc1ccccc1)C(=O)COc1cccnc1[N+](=O)[O-]", "Potency": "inconclusive: 17.8 µM [inhibitor, single point]"},
      {"compound": "CCOC(=O)/C(C#N)=C(C)/C=C1\\Sc2ccccc2N1CC", "Potency": "inactive"},
      {"compound": "COC(=O)c1ccc(OCC2c3cc(OC)c(OC)cc3CCN2C(=O)c2cccc(C)c2)cc1", "note": "(centres undefined)", "Potency": "inconclusive: 28.2 µM [inhibitor, single point]"},
      {"compound": "Oc1cccc(C(O)CNCc2ccc(OCc3ccc(Cl)cc3Cl)cc2)c1", "note": "(centres undefined)", "Potency": "inconclusive: 28.2 µM [inhibitor, single point]"},
      {"compound": "COc1ccc(NC(=O)C2CCN(C3=NS(=O)(=O)C(c4ccc(C)c(C)c4)=C3C)CC2)cc1OC", "Potency": "inactive"},
      {"compound": "Cc1cc2occ(CC(=O)N(C)CC(=O)Nc3ccccc3C(F)(F)F)c2cc1C", "Potency": "inconclusive: 10 µM [inhibitor, partial curve, poor fit]"},
      {"compound": "c1ccc(N2[C@@H]3c4ccccc4C[C@H]2c2ccccc23)cc1", "Potency": "inconclusive: 28.2 µM [inhibitor, single point]"},
      {"compound": "O=C(Cc1c[nH]c2ccccc12)OCCOC(=O)Cc1c[nH]c2ccccc12", "Potency": "inconclusive: 6.31 µM [inhibitor, partial curve]"},
      {"compound": "COc1ccc2cc(C(C)c3nc4ccccc4c(=O)n3N)ccc2c1", "note": "(centres undefined)", "Potency": "inconclusive: 2.82 µM [inhibitor, partial curve, poor fit]"},
      {"compound": "O=C(COC(=O)C12CC3CC(CC(C3)C1)C2)Nc1ncc(Cl)cc1Cl", "Potency": "inconclusive: 8.91 µM [inhibitor, partial curve]"},
      {"compound": "O=C(CCCC(=O)c1ccc(F)cc1)c1ccc(F)cc1", "Potency": "inconclusive: 28.2 µM [inhibitor, single point]"},
      {"compound": "O=C1c2ccccc2C(=O)N1CCCCN(C(=O)c1cc2ccccc2oc1=O)c1ccc(F)cc1F", "Potency": "inconclusive: 28.2 µM [inhibitor, single point]"},
      {"compound": "Cc1cccc(S(=O)(=O)N2CCC(CO)(Cc3ccccc3)CC2)c1", "Potency": "inconclusive: 7.94 µM [inhibitor, partial curve, poor fit]"},
      {"compound": "COc1ccccc1CN1CCCC(CNC(=O)c2cccc3ccccc23)C1", "note": "(centres undefined)", "Potency": "inconclusive: 10 µM [inhibitor, partial curve, poor fit]"},
      {"compound": "CCCCN(Cc1cc2cc(OC)ccc2[nH]c1=O)S(=O)(=O)c1ccc(C)cc1", "Potency": "inconclusive: 10 µM [inhibitor, partial curve, poor fit]"},
      {"compound": "Cc1cc(C(=O)COC(=O)c2ccc(O)cc2O)c(C)n1C(C)C", "Potency": "inconclusive: 11.2 µM [inhibitor, single point]"},
      {"compound": "CC1CCCC(NC(=O)c2ccc(COc3ccccc3)o2)C1C", "note": "(centres undefined)", "Potency": "inconclusive: 3.55 µM [inhibitor, full curve, poor fit]"},
      {"compound": "COCCCNC(=O)C[C@H]1C[C@H](C(=O)N2CCCCC2)[C@@]2(CCc3ccccc3)c3[nH]c4cc(-c5ccco5)ccc4c3CCN2C1=O", "Potency": "inconclusive: 31.6 µM [inhibitor, single point]"},
      {"compound": "O=C(COc1cccc(C(F)(F)F)c1)Nc1ccc(S(=O)(=O)N2CCCCC2)cc1", "Potency": "inconclusive: 3.98 µM [inhibitor, partial curve, poor fit]"},
      {"compound": "CCN1CCN(Cc2ccc(NC(=O)c3cc(NC(=O)c4cncc(-c5cccs5)c4)cc(OC)c3)cc2C(F)(F)F)CC1", "Potency": "inconclusive: 11.2 µM [inhibitor, single point] and inconclusive: 12.6 µM [inhibitor, single point]"}
    ]}
  ]
}
